# Experimental data taken from publication PMC10668032.
# Some of the results follow. At the low end of the ranking, values are background and their order means little.
# Target: SIX1-Q177R homeodomain (UniProt Q15475)
# Assay: universal protein binding microarray
# Conditions: Universal all-10-mer PBM (8x60K, AMADID 030236), 300 nM GST-tagged protein, Alexa Fluor 488 anti-GST; buffer, salt, pH and temperature not stated; high values mean tight binding; most listed sequences are background and not binding sites; double strand, one strand shown
row,Sequence,binding signal [E-score]
1,ACCCAAAG,-0.0644
2,AACGCCAC,0.14
3,ATCACCGA,0.000485
4,CGAGACCA,-0.159
5,GAAAGTCA,-0.0544
6,GGGCCAAA,-0.119
7,GAAATAGA,-0.171
8,GTCTTAGA,-0.0692
9,GCATCCTA,-0.199
10,AGCAAGGC,-0.0663
11,CACAGGCA,0.0268
12,ACATCCAA,-0.126
13,GGACCGAC,-0.135
14,AGTCCCCC,-0.221
15,ATTCCGTC,-0.183
16,CTCCTTCA,-0.0998
17,ATTTGGGG,-0.0268
18,AGTCCAGC,-0.158
19,GTTAACCA,-0.000155
20,CATAGCAA,-0.221
21,CTACCGCA,-0.0614
22,AGCTTTAG,-0.205
23,GCCCGGCA,-0.195
24,TCCTCCCA,-0.158
25,ACAGTGTA,0.381

row,Sequence,binding signal [E-score]
1,GCACTCTA,0.00896
2,GCCACACC,0.367
3,ACGATATA,0.0138
4,CGACACGC,0.424
5,GCGTCACC,0.127
6,AGAGGAGA,-0.123
7,ACACGTAA,0.323
8,GTTGGCGA,-0.104
9,CTATAATC,-0.0899
10,ATCCACGG,-0.0802
11,CTCGAACC,-0.0671
12,CGCTTTCA,-0.0918
13,GCGGCTCC,0.00768
14,CAGCATAC,-0.234
15,GCCTAGGC,-0.2
16,AAGCCTCT,-0.12
17,AAACGGCT,-0.198
18,AGCAGTAT,-0.129
19,AAGGAGAC,-0.106
20,GCCGGTAA,-0.033
21,CTCGCGCA,-0.0956
22,ATGTGATG,0.0182
23,CCGTACCG,-0.0466
24,GCTGGTGA,-0.158
25,ACGACTCG,0.145

row,Sequence,binding signal [E-score]
1,GTTTTCGA,-0.169
2,CCCTCGCC,0.0869
3,ACTCAAAC,0.0401
4,GGTGGTAA,-0.0288
5,CATCGTAA,-0.0939
6,ATGATCAT,-0.221
7,CATTCCGG,-0.0597
8,CTAATCAA,0.141
9,ATCCAGTA,0.053
10,CTGAGTTA,-0.123
11,CGATACAA,0.0318
12,CAGATAGG,-0.21
13,AGTATCTG,-0.173
14,GTACGAAC,-0.0465
15,AGAGAAAA,-0.185
16,AGCTCACA,0.0519
17,AAACCTTG,-0.0519
18,CACGGGTA,0.291
19,ACTCGACC,0.18
20,AGATCGGG,0.00864
21,TAGCTCCA,-0.124
22,ATGGTGAC,-0.0466
23,GAAGAGTA,-0.0747
24,TCATTACA,0.121
25,CCTGGAGA,-0.102

row,Sequence,binding signal [E-score]
1,CTAGCCGA,-0.0514
2,GCGTAACC,0.00677
3,CCGACCGG,0.172
4,AAAGGTAA,-0.115
5,CAGAATGA,-0.201
6,CCCGCAGA,-0.0384
7,GGGGAGTA,0.256
8,CGGCGCTA,-0.0894
9,TCGCTCCA,0.00362
10,CTACCGTC,-0.0438
11,ATGAGCAG,-0.208
12,GCCGGGCC,-0.183
13,CGCAGTAC,-0.0319
14,CTCTAAAA,-0.211
15,CATGATGG,0.00502
16,TTAAGCAA,-0.0696
17,ATGTAAGG,-0.0436
18,GCACCTGC,0.0304
19,TACATAGA,-0.17
20,CGTGCAAC,0.0789
21,CCACGTTC,-0.13
22,AGCTTCCC,-0.182
23,GCCGAGAA,-0.23
24,AGATGCAT,-0.277
25,CCCAAGTA,-0.105

row,Sequence,binding signal [E-score]
1,GAGCCAAC,-0.0196
2,ACCGTATA,0.0745
3,ATATGTTA,-0.175
4,TCCGCCCA,0.0172
5,GGTCCAAA,-0.0362
6,ACTGTAGG,0.00611
7,AACGGTAA,-0.123
8,ACTGGTAC,0.192
9,CTTGAACA,0.0794
10,GGTCACAC,0.384
11,AACTATGT,-0.229
12,CTTACATC,0.0188
13,GGCAGCCA,-0.154
14,GCACCGCA,0.169
15,CTCCCAAA,-0.149
16,ACCCCTGG,0.163
17,CTGAGGGC,-0.292
18,GTAAAGCA,0.0324
19,AATTTGCT,-0.198
20,GCCAGCAC,0.0623
21,CGTGAACG,-0.16
22,GTCTTGTA,-0.183
23,GGACAATA,0.00495
24,CCTCTATA,-0.188
25,TCAGTAGA,-0.164

row,Sequence,binding signal [E-score]
1,CATAACGG,-0.0211
2,CACTAGAG,0.137
3,AGTTGCAA,-0.204
4,CTGGAAAA,0.0754
5,CTGGACGA,-0.178
6,TGGATACA,0.274
7,CACGAAAA,0.157
8,GTCAGCAA,-0.155
9,AGCCAAGG,-0.1
10,CGGAGTTA,0.253
11,GCCCTCGC,0.0477
12,CCAGAAAG,0.0543
13,GATCTACA,-0.0241
14,ACAAACGA,-0.0121
15,ACACAACA,0.268
16,AAATAACG,-0.0651
17,CAGTAACA,0.107
18,ATAGGACC,0.0508
19,GCGTCAGA,0.0786
20,ACAGAGCT,-0.276
21,CCCCTGCC,0.147
22,CTGGAACA,0.0678
23,TCTAGCCA,-0.0318
24,GATGAAAC,-0.00426
25,GAACCAAA,-0.15

row,Sequence,binding signal [E-score]
1,CAGAAAAG,-0.2
2,AGCGGTCG,-0.0292
3,CGTTAGTA,-0.0206
4,AGCAGGGA,-0.0847
5,GATTAGCA,-0.134
6,ACTGGCCT,-0.0829
7,AATGAGGA,-0.173
8,AATAACTG,-0.0154
9,ACATTAGC,-0.204
10,CACTAGTA,0.116
11,CGCAATTC,-0.0897
12,AGATGGCA,-0.093
13,AAACACAT,0.124
14,CAGTCAAA,-0.206
15,AGTAACAT,-0.113
16,ATGGCTAC,0.02
17,GACGGCCA,-0.171
18,CTAAGCGC,-0.115
19,ATAGAGCA,-0.158
20,CCTGCTTA,0.0949
21,CAGTGCCA,0.00739
22,ATCAGCAT,-0.21
